# Data reported in the supplement of paper PMC8728848.
# The list shows a part of the results.
# B1: CC1G-11630 (Coprinopsis cinerea), A8P462 (protein)
# chain: MTTEAKIKLKAVVYWELVFDYDNSSNTGEITQSYTVKISQTSTRSTFASEVSTTTIDTLTKNNQEVDVGASYGAISANVSASWEHSEEVNNMLEKTTQTSTEDTYTVETEETRSYTIGPGGMLSLFQKHFSGPGMHVAFDVFTTDLELAKERTEIDIDVDVEAIRFVREIRVVYTDIMSEAPGDHVREINGKNPDINYGFNGKFVWLVPEQTRKTAQALTNVEFVSQAESDDRYWDLAAGAGGSNRYLIPVYDTNNKDKIYELALWRSDSYITHDKVKAAGWSGTTGDINSGRGGTYLNLVWKTRHAY
# How the values were obtained:
# Experiment in all cases: glycan array binding signal (z-score within array); higher = stronger binding
# Settings in all cases: glycan notation: IUPAC condensed, linker removed
# [1] = target: Neu5Ac(a2-6)Gal(b1-4)GlcNAc(b1-2)Man(a1-3)[GlcNAc(b1-4)][Neu5Ac(a2-6)Gal(b1-4)GlcNAc(b1-2)Man(a1-6)]Man(b1-4)GlcNAc(b1-4)GlcNAc
# How it was run: (§1)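 Glycan array data were curated from 3228 arrays in the Consortium for Functional Glycomics database and kept only where the protein sequence was available. Glycan names were converted to IUPAC-condensed notation, and columns mapping to the same glycan were averaged. The binding signal is a within-array Z-score, averaged across arrays of the same protein sequence at different concentrations or buffers and across linkers. Negative Z-scores can be read as non-binding.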
# [2] = target: Neu5Ac(a2-6)Gal(b1-4)GlcNAc(b1-2)Man(a1-3)[Man(a1-6)]Man(b1-4)GlcNAc(b1-4)GlcNAc
# How it was run: as §1
# [3] = target: Neu5Ac(a2-6)Gal(b1-4)GlcNAc(b1-2)Man(a1-3)[Neu5Ac(a2-3)Gal(b1-4)GlcNAc(b1-2)Man(a1-6)]Man(b1-4)GlcNAc(b1-4)GlcNAc
# How it was run: as §1
# [4] = target: Neu5Ac(a2-6)Gal(b1-4)GlcNAc(b1-2)Man(a1-3)[Neu5Ac(a2-6)Gal(b1-4)GlcNAc(b1-2)Man(a1-6)]Man(b1-4)GlcNAc(b1-4)GlcNAc
# How it was run: as §1
# [5] = target: Neu5Ac(a2-6)Gal(b1-4)GlcNAc(b1-2)Man(a1-3)[Neu5Ac(a2-6)Gal(b1-4)GlcNAc(b1-2)Man(a1-6)]Man(b1-4)GlcNAc(b1-4)[Fuc(a1-6)]GlcNAc
# How it was run: as §1
# [6] = target: Neu5Ac(a2-6)Gal(b1-4)GlcNAc(b1-2)Man(a1-6)Man(b1-4)GlcNAc(b1-4)GlcNAc
# How it was run: as §1
# [7] = target: Neu5Ac(a2-6)Gal(b1-4)GlcNAc(b1-2)Man(a1-6)[Gal(b1-4)GlcNAc(b1-2)Man(a1-3)]Man(b1-4)GlcNAc(b1-4)GlcNAc
# How it was run: as §1
# [8] = target: Neu5Ac(a2-6)Gal(b1-4)GlcNAc(b1-2)Man(a1-6)[GlcNAc(b1-2)Man(a1-3)]Man(b1-4)GlcNAc(b1-4)GlcNAc
# How it was run: as §1
# [9] = target: Neu5Ac(a2-6)Gal(b1-4)GlcNAc(b1-2)Man(a1-6)[Man(a1-3)]Man(b1-4)GlcNAc(b1-4)GlcNAc
# How it was run: as §1
# [10] = target: Neu5Ac(a2-6)Gal(b1-4)GlcNAc(b1-2)[Neu5Ac(a2-6)Gal(b1-4)GlcNAc(b1-4)]Man(a1-3)[GlcNAc(b1-4)][Neu5Ac(a2-6)Gal(b1-4)GlcNAc(b1-2)[Neu5Ac(a2-6)Gal(b1-4)GlcNAc(b1-6)]Man(a1-6)]Man(b1-4)GlcNAc(b1-4)GlcNAc
# How it was run: as §1
# [11] = target: Neu5Ac(a2-6)Gal(b1-4)GlcNAc(b1-2)[Neu5Ac(a2-6)Gal(b1-4)GlcNAc(b1-4)]Man(a1-3)[GlcNAc(b1-4)][Neu5Ac(a2-6)Gal(b1-4)GlcNAc(b1-4)Man(a1-6)]Man(b1-4)GlcNAc(b1-4)GlcNAc
# How it was run: as §1
# [12] = target: Neu5Ac(a2-6)Gal(b1-4)GlcNAc(b1-2)[Neu5Ac(a2-6)Gal(b1-4)GlcNAc(b1-6)]Man(a1-6)[Neu5Ac(a2-6)Gal(b1-4)GlcNAc(b1-2)Man(a1-3)][GlcNAc(b1-4)]Man(b1-4)GlcNAc(b1-4)GlcNAc
# How it was run: as §1
# [13] = target: Neu5Ac(a2-6)Gal(b1-4)GlcNAc(b1-3)Gal(b1-3)GlcNAc
# How it was run: as §1
# [14] = target: Neu5Ac(a2-6)Gal(b1-4)GlcNAc(b1-3)Gal(b1-4)GlcNAc
# How it was run: as §1
# [15] = target: Neu5Ac(a2-6)Gal(b1-4)GlcNAc(b1-3)Gal(b1-4)GlcNAc(b1-2)Man(a1-3)[Neu5Ac(a2-6)Gal(b1-4)GlcNAc(b1-3)Gal(b1-4)GlcNAc(b1-2)Man(a1-6)]GalNAc
# How it was run: as §1
# [16] = target: Neu5Ac(a2-6)Gal(b1-4)GlcNAc(b1-3)Gal(b1-4)GlcNAc(b1-3)Gal(b1-4)GlcNAc
# How it was run: as §1
# [17] = target: Neu5Ac(a2-6)Gal(b1-4)GlcNAc(b1-3)Gal(b1-4)GlcNAc(b1-3)Gal(b1-4)GlcNAc(b1-2)Man(a1-3)[Neu5Ac(a2-6)Gal(b1-4)GlcNAc(b1-3)Gal(b1-4)GlcNAc(b1-3)Gal(b1-4)GlcNAc(b1-2)Man(a1-6)]GalNAc
# How it was run: as §1
# [18] = target: Neu5Ac(a2-6)Gal(b1-4)GlcNAc(b1-3)Gal(b1-4)GlcNAc(b1-3)GalNAc
# How it was run: as §1
# [19] = target: Neu5Ac(a2-6)Gal(b1-4)GlcNAc(b1-3)Gal(b1-4)GlcNAc(b1-3)[Neu5Ac(a2-6)Gal(b1-4)GlcNAc(b1-3)Gal(b1-4)GlcNAc(b1-6)]GalNAc
# How it was run: as §1
# [20] = target: Neu5Ac(a2-6)Gal(b1-4)GlcNAc(b1-3)Gal(b1-4)GlcNAc(b1-6)[Gal(b1-3)]GalNAc
# How it was run: as §1
# [21] = target: Neu5Ac(a2-6)Gal(b1-4)GlcNAc(b1-3)Gal(b1-4)[Fuc(a1-3)]GlcNAc(b1-3)Gal(b1-4)[Fuc(a1-3)]GlcNAc
# How it was run: as §1
# [22] = target: Neu5Ac(a2-6)Gal(b1-4)GlcNAc(b1-3)GalNAc
# How it was run: as §1
# [23] = target: Neu5Ac(a2-6)Gal(b1-4)GlcNAc(b1-3)[Neu5Ac(a2-6)Gal(b1-4)GlcNAc(b1-6)]GalNAc
# How it was run: as §1
# [24] = target: Neu5Ac(a2-6)Gal(b1-4)GlcNAc(b1-6)GalNAc
# How it was run: as §1
# [25] = target: Neu5Ac(a2-6)Gal(b1-4)GlcNAc(b1-6)[Gal(b1-3)GlcNAc(b1-3)]Gal(b1-4)Glc
# How it was run: as §1
# [26] = target: Neu5Ac(a2-6)Gal(b1-4)GlcNAc(b1-6)[Gal(b1-3)]GalNAc
# How it was run: as §1
# [27] = target: Neu5Ac(a2-6)Gal(b1-4)GlcNAc6S
# How it was run: as §1
# Neu5Ac(a2-6)GalNAc = target: Neu5Ac(a2-6)GalNAc
# How it was run: as §1
# [28] = target: Neu5Ac(a2-6)GalNAc(b1-4)GlcNAc
# How it was run: as §1
# [29] = target: Neu5Ac(a2-6)GalNAc(b1-4)GlcNAc6S
# How it was run: as §1
# [30] = target: Neu5Ac(a2-6)GlcNAc(b1-4)GlcNAc
# How it was run: as §1
binder,measurement,setting,value
B1,glycan array binding signal (z-score),[1],0.972
same,glycan array binding signal (z-score),[2],-0.125
same,glycan array binding signal (z-score),[3],-0.644
same,glycan array binding signal (z-score),[4],-0.625
same,glycan array binding signal (z-score),[5],0.186
same,glycan array binding signal (z-score),[6],-0.588
same,glycan array binding signal (z-score),[7],15.9
same,glycan array binding signal (z-score),[8],-0.308
same,glycan array binding signal (z-score),[9],-0.622
same,glycan array binding signal (z-score),[10],-0.325
same,glycan array binding signal (z-score),[11],-0.402
same,glycan array binding signal (z-score),[12],-0.523
same,glycan array binding signal (z-score),[13],-0.572
same,glycan array binding signal (z-score),[14],-0.292
same,glycan array binding signal (z-score),[15],0.056
same,glycan array binding signal (z-score),[16],-0.463
same,glycan array binding signal (z-score),[17],2.1
same,glycan array binding signal (z-score),[18],-0.237
same,glycan array binding signal (z-score),[19],-0.124
same,glycan array binding signal (z-score),[20],0.078
same,glycan array binding signal (z-score),[21],-0.27
same,glycan array binding signal (z-score),[22],0.496
same,glycan array binding signal (z-score),[23],0.001
same,glycan array binding signal (z-score),[24],2.18
same,glycan array binding signal (z-score),[25],-0.688
same,glycan array binding signal (z-score),[26],0.527
same,glycan array binding signal (z-score),[27],-0.166
same,glycan array binding signal (z-score),Neu5Ac(a2-6)GalNAc,-0.508
same,glycan array binding signal (z-score),[28],-0.502
same,glycan array binding signal (z-score),[29],0.523
same,glycan array binding signal (z-score),[30],-0.717
